This note sets out measurements from the supplement of paper PMC3334620.

Over roughly 33,000 sequences, “E-score (-0.5 to 0.5)” has its median near -0.01; the highest 2% begin near 0.26. Some of the results follow.

In this assay the target is Ste12 (UniProt P13574). Briefly: PBM E-score (8-mer binding enrichment) (E-score (-0.5 to 0.5)); higher = stronger / more preferred TF binding; most listed sequences are background and not binding sites. The settings on record: protein concentration: 200 nM; construct: GST-DNA-binding domain. In a few lines: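 Bound GST-tagged yeast transcription factors, applied at about 100-200 nM to double-stranded universal all-10-mer Agilent arrays, were detected with fluorescent anti-GST. Scans were normalised with masliner. A modified Wilcoxon-Mann-Whitney statistic, the E-score, was assigned to each ungapped eight-base word pooled with its reverse complement by the Universal PBM Analysis Suite.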
As to CACGTTTA, the “PBM E-score” value is -0.00355.
Turning to CTCACCTA, the “PBM E-score” value is 0.0644.
The result for CTCCAAAC reads 0.127; that for CTAGTTCC, 0.195.
The result for CGACGCCA reads 0.0868; that for AGTGTCCA, -0.0991; that for AATTGTAG, 0.057.
For the sequence CCGCGAAG, the “PBM E-score” value was 0.0504.
The same measure for AAAAGCGG: -0.0462; for GAGAGTCC: -0.218; for CTTTATGA: -0.0114.
The result for ACCTCGAT reads -0.0751; that for AAGACAGG, 0.0129.
Take AAATAAAG: the “PBM E-score” value was 0.172.
The same measure for TCACTAAA: 0.161; for AGCACAGG: -0.149; for CGACTAAA: -0.0822.
In the case of ATCACGAA, the “PBM E-score” value amounted to 0.156.
The same measure for TCCGCGAA: 0.106.
The result for AGAACTGC reads -0.131; that for GACAGTTA, 0.0282.
The result for AGATCACG reads -0.0999.
On to CTCGACCA, for which the “PBM E-score” value is -0.173.
In the case of AACTATAG, the “PBM E-score” value turned out to be 0.0196.
The same measure for GGTGCACC: -0.107; for CAGAATCA: 0.075; for CATCATCC: 0.0337.
With AATGTACA, the “PBM E-score” value came out at 0.112.
For CCTAGTAA, the “PBM E-score” value came out at 0.0288.
As for CCATGCGC, the “PBM E-score” value is -0.153.
Turning to AATTGGAC, the “PBM E-score” value was found to be 0.0593.
The result for ACGCAGTC reads -0.237; that for GGCTACGA, -0.141; that for AGGACCCA, -0.203.
Take CACGCCTC: the “PBM E-score” value was -0.0775.
The same measure for CCGAGGCA: 0.0971; for ATTGCTCG: 0.0147.
The same measure for CCGTCTAC: 0.0342; for CTTTCAAA: 0.246; for ACCTGACT: 0.0963.
AAACGGAT: the “PBM E-score” value came out at 0.265.
Regarding GCACTTAA, the “PBM E-score” value turned out to be 0.0284.
Turning to GCCGAATA, the “PBM E-score” value came to 0.0561.
The result for CCGTGAAG reads -0.185; that for GTCATAGA, 0.151; that for ATTGGTGG, 0.035.
As for ACGTACAT, the “PBM E-score” value was -0.0117.
On to GCAGTCCC, for which the “PBM E-score” value is -0.0962.
Regarding GGGGTGAA, the “PBM E-score” value came to 0.0185.
CTTAATCC: the “PBM E-score” value was found to be 0.00134.
With CATCGGTA, the “PBM E-score” value is -0.00861.
As for GTTCTTAA, the “PBM E-score” value came to 0.053.
Regarding CTTTCTGC, the “PBM E-score” value was 0.0703.
The result for AGCCACAA reads 0.0574.
The result for AAGTCACG reads 0.0198.
As for ATAATCCC, the “PBM E-score” value came to 0.16.
The same measure for CAAAATCC: 0.251.
In the case of ATAACCAA, the “PBM E-score” value was determined as 0.294.
In the case of GACCTCGC, the “PBM E-score” value was -0.086.
The result for CAGTTTAC reads -0.053.
On to AGTTTAGC, for which the “PBM E-score” value was -0.00744.
Take AATGCACG: the “PBM E-score” value is -0.0154.
Turning to CGTTTAAA, the “PBM E-score” value is 0.111.
The same measure for GAAGACAC: -0.0891; for CCGATGGA: -0.0721.
On to TCTACGCA, for which the “PBM E-score” value is -0.068.
With AGAGTCGG, the “PBM E-score” value was 0.114.
The same measure for CACCAATG: 0.00052; for AGAAAAGA: 0.297; for GAACTCGA: -0.0129.
As to CGAAGTTC, the “PBM E-score” value is -0.0661.
On to AACCCGTG, for which the “PBM E-score” value is -0.315.
Take AACTTGCC: the “PBM E-score” value is -0.0957.
For CGGTCGGC, the “PBM E-score” value is -0.14.
The result for AGAGTTAA reads 0.0905; that for AACGAGGA, 0.0429.
The result for GAACCCGC reads -0.0485; that for GGAATTCC, -0.0447; that for TCTAAGCA, 0.0247.
The result for AATAGTGG reads -0.0341; that for AAAAATCT, 0.318; that for GCAACCGA, -0.185.
In the case of GGATGTGA, the “PBM E-score” value is 0.146.
As for ATAATCTC, the “PBM E-score” value was 0.127.
As for TGAAGCAA, the “PBM E-score” value was -0.0563.
With CCTGACTA, the “PBM E-score” value was -0.0255.
